Assay results from PubChem BioAssay AID1508623 (National Center for Advancing Translational Sciences (NCATS), 2021).
Out of some 48,000 compounds screened, about 450 (0.94%) were called active. The inconclusive results got no clear call from the source; some entries with a clear call stand among them for comparison. Calls follow the shape of the dose curve; as a rule, active = well fitted inhibition curve with a large enough effect; inconclusive = small, poorly fitted or top-dose-only effect; inactive = no such curve, though single readings can be large or run the other way. Potencies beside an inconclusive call are fits to weak or partial responses and may not hold up.

Assay: Primary qHTS for Identification of Small Molecule Inhibitors of Huntingtin Promoter Activity; also: nearly all actives have a fitted effect of over 50% in size
Details: HEK293 HTT promoter firefly luciferase reporter (activity 0% = vehicle and -100% = no light), 24 h; activity change, negative = inhibition: at 57.5 µM (top of the series)
How it was run: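 Luminescence was read after Dual-Glo reagent and a 10 min room-temperature incubation. Values were normalized to vehicle (0% activity) and zero RLU (-100% activity). Reporter HEK293 cells had been exposed to compounds (up to 57.5 uM final) for 24 h.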
Potency is read from the fitted curve at half-maximal effect; tags tell the direction and shape of the fitted curve.

Row | SMILES | Potency | activity change, negative = inhibition
1 | CCc1ccc(NC(=O)N2CC=C(c3c[nH]c4ccccc34)CC2)cc1 | inconclusive: 22.4 µM [inhibitor, single point] | –
2 | COc1ccc(C(=O)NCC(c2cccnc2)N2CCc3ccccc3C2)cc1 (stereo unspecified) | inconclusive: 28.2 µM [inhibitor, single point] | –
3 | CCOC(=O)c1[nH]c(C)c(CCC(=O)Nc2cc(Cl)ccc2C)c1C | inconclusive: 31.6 µM [inhibitor, partial curve, poor fit] | –
4 | COc1cccc(CNC(=O)C(=O)NCC(c2cccs2)S(=O)(=O)c2cccs2)c1 (stereo unspecified) | inconclusive: 39.8 µM [inhibitor, single point] | –
5 | CCc1ccc(NC(=O)CN2C(=O)C3(SCC(=O)N3c3ccccc3)c3ccccc32)cc1 (stereo unspecified) | inconclusive: 20 µM [inhibitor, partial curve, poor fit] | –
6 | Cc1ccc(Cl)cc1NC(=O)CSC1=Nc2ccccc2C2=NC(Cc3ccccc3)C(=O)N12 (stereo unspecified) | inconclusive: 31.6 µM [inhibitor, partial curve, poor fit] | –
7 | COc1ccc(NC(=O)Cn2nc(-c3ccncc3)ccc2=O)cc1Cl | inconclusive: 3.98 µM [inhibitor, single point] | –
8 | COc1ccc(CCNc2ncnc3c2cnn3-c2cccc(Cl)c2)cc1 | – | inactive: -44%
9 | COc1ccc(OCCCCn2c(C3CC(=O)N(c4cccc(Cl)c4)C3)nc3ccccc32)cc1 (stereo unspecified) | inconclusive: 39.8 µM [inhibitor, single point] | –
10 | COc1ccc(-c2onc(C)c2C)cc1S(=O)(=O)N(C)Cc1ccco1 | inconclusive: 22.4 µM [inhibitor, single point] | –
11 | CCN(CCCNC(=O)c1cc2cc3ccc(C)cc3nc2s1)c1ccccc1 | inconclusive: 31.6 µM [inhibitor, single point] | –
12 | COc1ccc(-c2nc(CSCC(=O)N3CCN(c4ccc(OC)cc4)CC3)c(C)o2)cc1 | inconclusive: 2 µM [inhibitor, full curve] | –
13 | COc1cccc(-c2nc(CSCC(=O)NCCc3ccc(Cl)cc3)c(C)o2)c1 | inconclusive: 25.1 µM [inhibitor, partial curve] | –
14 | COc1cc(-c2nc(Cn3nnc(C(=O)Nc4cc(C)cc(C)c4)c3C)c(C)o2)cc(OC)c1OC | inconclusive: 35.5 µM [inhibitor, partial curve, poor fit] | –
15 | C[C@](Cc1c[nH]c2ccccc12)(NC(=O)OC1C2CC3CC(C2)CC1C3)C(=O)NC[C@H](NC(=O)CCC(=O)O)c1ccccc1 (stereo partly specified) | – | inactive: 26.3%
16 | Cc1ccc(CNC(=O)c2ccc(Cn3c(SCc4ccccc4F)nc4cccnc43)cc2)cc1 | inconclusive: 39.8 µM [inhibitor, single point] | –
17 | CCN(CC)CCNC(=O)c1ccc2c(c1)sc1nc(-c3ccc(F)cc3)cn12 | – | inactive: 4.94%
18 | CC(=O)Nc1cc(NC(C)=O)cc(-c2nc3ccccc3[nH]2)c1 | inconclusive: 39.8 µM [inhibitor, single point] | –
19 | CCOC(=O)c1c(C)oc2nc(C)nc(Nc3ccc(CC)cc3)c12 | – | inactive: -7.44%
20 | CCn1c(C(=O)N2CCC(C(=O)NCCc3ccc(OC)cc3OC)CC2)cc2sccc21 | inconclusive: 39.8 µM [inhibitor, single point] | –
21 | COc1cccc2c1Oc1ncccc1N(C(=O)Nc1ccc(F)c(Cl)c1)C2 | inconclusive: 39.8 µM [inhibitor, single point] | –

Row | SMILES | Potency | activity change, negative = inhibition
22 | COc1ccc(NC(=O)c2ccc(-c3nc(CSc4ccccc4)c(C)o3)cc2)cc1OC | inconclusive: 2.82 µM [inhibitor, full curve] | –
23 | COc1ccc(OC)c(NC(=O)Cn2c(=O)n(Cc3ccccc3)c(=O)c3ccccc32)c1 | inconclusive: 39.8 µM [inhibitor, single point] | –
24 | CCCn1c(-c2ccc(S(=O)(=O)N3CCOCC3)cc2)csc1=Nc1ccc(OCC)cc1 | inconclusive: 8.91 µM [inhibitor, partial curve] | –
25 | O=C(NCc1ccccc1Cl)C(=O)NCC(c1cccs1)S(=O)(=O)c1cccs1 (stereo unspecified) | inconclusive: 28.2 µM [inhibitor, single point] | –
26 | Cc1ccc(C)c(N2C(=O)N(Cc3cc(=O)n4ccccc4n3)c3ccccc3S2(=O)=O)c1 | inconclusive: 28.2 µM [inhibitor, partial curve, poor fit] | –
27 | CCc1cccc(NC(=O)Nc2csc3c2CCCC3)c1 | inconclusive: 39.8 µM [inhibitor, single point] | –
28 | COc1cccc(NC(=O)CNC(=O)Cn2c(C)cc3ccccc3c2=O)c1 | – | inactive: -6.73%
29 | CNC(=O)c1ccc2c(c1)N=C(C)c1cc(C)ccc1S2 | – | inactive: -25.9%
30 | CC(C)(C)C1CCc2oc3ccc(NS(=O)(=O)c4cc(Cl)ccc4Cl)cc3c2C1 (stereo unspecified) | – | inactive: -19.4%
31 | CCCC(=O)OC1=CN(Cc2ccccc2)S(=O)(=O)c2ccccc21 | – | inactive: -7.5%
32 | CC(=O)N1c2ccc(S(=O)(=O)N3CCN(c4ccc(C)cc4C)CC3)cc2CC1C (stereo unspecified) | inconclusive: 28.2 µM [inhibitor, partial curve, poor fit] | –
33 | COc1ccccc1N(CC(=O)NCCSCc1ccccc1Cl)S(C)(=O)=O | inconclusive: 25.1 µM [inhibitor, single point] | –
34 | CCOC(=O)c1cnc2ccc(C)cc2c1Nc1ccc(OCc2ccccc2Cl)cc1 | inconclusive: 15.8 µM [inhibitor, partial curve, poor fit] | –
35 | CCOC(=O)c1ccc(N2C(=O)c3n[nH]c(-c4cccs4)c3C2c2cccc(F)c2)cc1 (stereo unspecified) | inconclusive: 28.2 µM [inhibitor, single point] | –
36 | NC(=O)c1ncn([C@@H]2O[C@H](CO)[C@@H](O)[C@@H]2O)n1 | – | inactive: 1.96%
37 | Nc1c(-c2nc(-c3ccc(Cl)cc3)cs2)c2ccccn2c1C(=O)c1ccc2c(c1)OCO2 | inconclusive: 0.178 µM [inhibitor, full curve, poor fit] | –
38 | Cc1c(C)n(Cc2ccc(Cl)cc2)c2ccc(C(=O)NCCc3ccc(S(N)(=O)=O)cc3)cc12 | inconclusive: 31.6 µM [inhibitor, partial curve, poor fit] | –
39 | Cc1ccc(C(=O)N2CCc3cc(CNC(=O)COc4ccccc4)ccc32)cc1 | – | inactive: 11.5%
40 | CCOc1ccc(Nc2nc3ccccc3n3c(CC)nnc23)cc1 | – | inactive: -8.32%
41 | O=S(=O)(c1cccc(C(F)(F)F)c1)n1c(/C=C/c2ccccc2)nc2ccccc21 | – | inactive: -7.11%
42 | O=C(Nc1ccc(Br)cc1)C1CCN(S(=O)(=O)c2cccc3nsnc23)CC1 | inconclusive: 31.6 µM [inhibitor, partial curve, poor fit] | –

Row | SMILES | Potency | activity change, negative = inhibition
43 | O=C(NCC(c1ccco1)S(=O)(=O)c1ccc(Cl)cc1)c1ccccc1F (stereo unspecified) | – | inactive: 2.61%
44 | Cc1ccc(NS(=O)(=O)c2ccc3[nH]c4c(c3c2)CCCCCC4)cc1Cl | inconclusive: 22.4 µM [inhibitor, partial curve] | –
45 | COCC(=O)N1c2nc(C(C)C)nn2C2(CCCCC2)[C@@H]2CCCC[C@@H]21 | inconclusive: 28.2 µM [inhibitor, partial curve] | –
46 | CSc1nc2sc3c(c2c(=O)n1-c1ccccc1C)CCCC3 | inconclusive: 31.6 µM [inhibitor, single point] | –
47 | Cc1cccc(N2C(=O)CSC23C(=O)N(Cc2cccc(C(F)(F)F)c2)c2ccccc23)c1 (stereo unspecified) | inconclusive: 39.8 µM [inhibitor, single point] | –
48 | Cc1nc(N2CCCC2)c2c(C(=O)N3CCN(c4cccc(Cl)c4)CC3)c(C)oc2n1 | inconclusive: 28.2 µM [inhibitor, single point] | –
49 | C=Cc1ccc(CSc2nc(-c3ccccc3Cl)nc3c2Cc2c(CO)cnc(C)c2O3)cc1 | inconclusive: 22.4 µM [inhibitor, partial curve, poor fit] | –
50 | O=C1CC(c2nc3ccccc3n2CCCOc2ccccc2)CN1c1ccc(F)cc1 (stereo unspecified) | inconclusive: 31.6 µM [inhibitor, partial curve, poor fit] | –
51 | Cc1ccc(CNC(=O)c2ccc(CSCc3ccc(C)cc3)o2)cc1 | inconclusive: 22.4 µM [inhibitor, partial curve, poor fit] | –
52 | C=C(C)[C@@H]1CC[C@]2(C)CC[C@]3(C)[C@H](CC[C@@H]4[C@@]5(C)CC[C@H](O)C(C)(C)[C@H]5CC[C@]43C)[C@@H]12 | – | inactive: -9.66%
53 | CCN(C(=O)Cn1ncc2c1-c1cc(C)ccc1OC2)c1cc(Cl)ccc1OC | inconclusive: 22.4 µM [inhibitor, partial curve, poor fit] | –
54 | CCN(Cc1ccccc1)C(=O)CCNS(=O)(=O)c1ccc2c(c1)CC(C)N2C(C)=O (stereo unspecified) | inconclusive: 39.8 µM [inhibitor, single point] | –
55 | CC(C)Oc1ccc(CNC(=O)c2ccc(NC(=O)c3nsc4ccccc34)cc2)cc1 | inconclusive: 39.8 µM [inhibitor, single point] | –
56 | CCN(CC)CCOc1ccc(/C(=C(\Cl)c2ccccc2)c2ccccc2)cc1 | – | inactive: -21.1%
57 | COCCNc1nc(NCc2ccccc2OC)c2cnn(C)c2n1 | inconclusive: 25.1 µM [inhibitor, partial curve, poor fit] | –
58 | CCCCNc1nc(Oc2ccc(=O)n(-c3ccccc3)n2)nc(N(C)C)n1 | inconclusive: 8.91 µM [inhibitor, partial curve] | –
59 | CN(C(=O)c1nn(C)c2c1COc1ccccc1-2)c1cccc(C(F)(F)F)c1 | inconclusive: 31.6 µM [inhibitor, single point] | –
60 | COc1ccc(N2CCN(CCCNC(=O)c3cnn(-c4ccc(F)cc4)c3-n3cccc3)CC2)cc1 | inconclusive: 17.8 µM [inhibitor, partial curve, poor fit] | –
61 | COc1ccc(N2CCN(c3nc(-c4ccccc4F)nc4ccccc34)CC2)cc1 | inconclusive: 39.8 µM [inhibitor, single point] | –
